In US20240262922A1 (Merck KGaA, published 2024):

T1: AVI-GST-His6-hOX40L (human, UniProt P23510 51-183)
T1 sequence: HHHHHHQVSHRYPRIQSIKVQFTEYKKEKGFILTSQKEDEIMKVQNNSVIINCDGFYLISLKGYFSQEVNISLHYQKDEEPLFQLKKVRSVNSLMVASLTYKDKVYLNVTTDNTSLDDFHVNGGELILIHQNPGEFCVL

T2: recombinant human OX40L protein (R&D Systems, cat. #1054-OX) (human, UniProt P23510 51-183)
T2 construct: Bought soluble recombinant protein; also called rhOX40L; recombinant soluble OX40L
T2 sequence: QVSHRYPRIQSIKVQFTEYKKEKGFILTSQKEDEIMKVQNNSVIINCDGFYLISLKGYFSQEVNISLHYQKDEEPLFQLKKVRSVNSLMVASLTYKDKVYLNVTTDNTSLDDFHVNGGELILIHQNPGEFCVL


Experiments:
AVI-GST-His6-hOX40L = target: T1, AVI-GST-His6-hOX40L; assay: cell-based or functional assay
[1] = target: T2, recombinant human OX40L protein (R&D …); assay: SPR steady state, Biacore T200; OX40L immobilised on CM5, fusion protein in solution
Description: Recombinant OX40L proteins (human OX40L protein, R&D systems, cat. #1054-OX; cynomolgus monkey OX40L, Novoprotein cat. #CP72) were immobilized onto Biacore CM5 sensor chips and anti-OX40L antibodies were bound to this surface at a range of concentrations. The response at steady state was measured with a Biacore T200 instrument (GE Healthcare) and plotted against the concentration of antibody and fit to a 1:1 binding model. The steady state KD was determined as the antibody concentration at a response equal to half the maximal response (Rₘₐₓ).

[2] = target: T2, recombinant human OX40L protein (R&D …); assay: cell-based or functional assay

| OX40L neutralization/OX40-HEK Reporter IC50 (AVI-GST-His6-hOX40L) | Kd [1] | Primary T cell activation assay IC50 [2] | binding result [1] | Binder |
| --- | --- | --- | --- | --- |
| > 161 nM | 65.8 nM | – | – | CTLA4_anti OX40L fusion protein 85F12 (Fc fusion) heavy: [sequence of about 120 residues not given]EPKSSDKTHTCPPCPAPPVAGPSVFLFPPKPKDTLMISRTPEVTCVVVDVSHEDPEVKFNWYVDGVEVHNAKTKPREEQYNSTYRVVSVLTVLHQDWLNGKEYKCAVSNKALPSSIEKTISKAKGQPREPQVYTLPPSREEMTKNQVSLTCLVKGFYPSDIAVEWESNGQPENNYKTTPPVLDSDGSFFLYSKLTVDKSRWQQGNVFSCSVMHEALHNHYTQKSLSLSPGAGGGGSGGGGSGGGGSQVQLQQSGPGLVKPSQTLSLTCAISGDSVSSNSAVWNWIRQSPSRGLEWLGRTDYRSKWNNDYAVSVKSRITINPDTSKNQFSLQLNSVTPEDTAVYYCARGDAGMASFDYWGQGTLVTVSSASTKGPSVFPLAPSSKSTSGGTAALGCLVKDYFPEPVTVSWNSGALTSGVHTFPAVLQSSGLYSLSSVVTVPSSSLGTQTYICNVNHKPSNTKVDKRVEPKSC light: SSELTQPPSVSVSPGQTASITCSGDKLGDKYACWYQQKAGQSPVVVIYQDRKRPSGIPERFSGSNSGNTATLTISGTQAMDEADYYCQTWDRRTAVFGGGTKLTVLGQPKAAPSVTLFPPSSEELQANKATLVCLISDFYPGAVTVAWKADSSPVKAGVETTTPSKQSNNKYAASSYLSLTPEQWKSHKSYSCQVTHEGSTVEKTVAPTECS |
| 12.7 nM | 106 nM | 20.8 nM | – | CTLA4_anti OX40L fusion protein 95B06 (Fc fusion) heavy: [sequence of about 120 residues not given]EPKSSDKTHTCPPCPAPPVAGPSVFLFPPKPKDTLMISRTPEVTCVVVDVSHEDPEVKFNWYVDGVEVHNAKTKPREEQYNSTYRVVSVLTVLHQDWLNGKEYKCAVSNKALPSSIEKTISKAKGQPREPQVYTLPPSREEMTKNQVSLTCLVKGFYPSDIAVEWESNGQPENNYKTTPPVLDSDGSFFLYSKLTVDKSRWQQGNVFSCSVMHEALHNHYTQKSLSLSPGAGGGGSGGGGSGGGGSEVQLLESGGGLVQPGGSLRLSCAASGFTFSSYAMTWVRQAPGKGLEWVSDISGSGGSTKYADSVKGRFTISRDNPKNTLYLQMNSLRAEDTAVYYCAKDLGFYSTWDTDYWGQGTLVTVSSASTKGPSVFPLAPSSKSTSGGTAALGCLVKDYFPEPVTVSWNSGALTSGVHTFPAVLQSSGLYSLSSVVTVPSSSLGTQTYICNVNHKPSNTKVDKRVEPKSC light: DMQMTQSPSSLSASVGDRVTITCRASQGIRNDLDWYQQKPGKVPKRLIHAASSLQSGVPSRFSGSGSGTEFTLTISSLQPEDFVTYYCLQHNTYPWTFGQGTKLEIKRTVAAPSVFIFPPSDEQLKSGTASVVCLLNNFYPREAKVQWKVDNALQSGNSQESVTEQDSKDSTYSLSSTLTLSKADYEKHKVYACEVTHQGLSSPVTKSFNRGEC |
| 50.2 nM | – | 8.1 nM | no binding | CTLA4_anti OX40L fusion protein 84E11 (Fc fusion) heavy: [sequence of about 120 residues not given]EPKSSDKTHTCPPCPAPPVAGPSVFLFPPKPKDTLMISRTPEVTCVVVDVSHEDPEVKFNWYVDGVEVHNAKTKPREEQYNSTYRVVSVLTVLHQDWLNGKEYKCAVSNKALPSSIEKTISKAKGQPREPQVYTLPPSREEMTKNQVSLTCLVKGFYPSDIAVEWESNGQPENNYKTTPPVLDSDGSFFLYSKLTVDKSRWQQGNVFSCSVMHEALHNHYTQKSLSLSPGAGGGGSGGGGSGGGGSQLQLQESGPGLVKPSETLSLTCTVSGGSISSGSFYWGWIRQPPGKGLEWIGTIYYSGSTYYNPSLKSRVAISVDTSKNQFYLNLNFVTAADTAVYHCARERSSSWYPFDYWGQGTLVTVSSASTKGPSVFPLAPSSKSTSGGTAALGCLVKDYFPEPVTVSWNSGALTSGVHTFPAVLQSSGLYSLSSVVTVPSSSLGTQTYICNVNHKPSNTKVDKRVEPKSC light: SSELTQDPAVSVALGQTVRITCQGDSLRNYFANWYQQKPGQAPVLVIYGKNNRPSGIPDRFSGSSSGNTASLTITGAQAEDEADYYCNSRDSSGYHVVFGGGTKLTVLGQPKAAPSVTLFPPSSEELQANKATLVCLISDFYPGAVTVAWKADSSPVKAGVETTTPSKQSNNKYAASSYLSLTPEQWKSHKSYSCQVTHEGSTVEKTVAPTECS |
| 7.7 nM | 57.4 nM | 7.1 nM | – | CTLA4_anti OX40L fusion protein 97G07 (Fc fusion, CTLA4 ECD - variant IgG1 hinge-Fc - linker - anti-OX40L Fab; also called CTLA4-Fc-anti-OX40L 97G07) heavy: [sequence of about 120 residues not given]EPKSSDKTHTCPPCPAPPVAGPSVFLFPPKPKDTLMISRTPEVTCVVVDVSHEDPEVKFNWYVDGVEVHNAKTKPREEQYNSTYRVVSVLTVLHQDWLNGKEYKCAVSNKALPSSIEKTISKAKGQPREPQVYTLPPSREEMTKNQVSLTCLVKGFYPSDIAVEWESNGQPENNYKTTPPVLDSDGSFFLYSKLTVDKSRWQQGNVFSCSVMHEALHNHYTQKSLSLSPGAGGGGSGGGGSGGGGSQLQLQESGPGLVKPSETLSLTCTVSGGSISSSSYYWGWIRQPPGKGLEWIGGIGSVDYSGNTYYKPSLKSRVTISVDTSKNQFSLKLSTVTAADTAVYHCARHRGIYFFDYWGQGTLVTVSSASTKGPSVFPLAPSSKSTSGGTAALGCLVKDYFPEPVTVSWNSGALTSGVHTFPAVLQSSGLYSLSSVVTVPSSSLGTQTYICNVNHKPSNTKVDKRVEPKSC light: YYELTQPLSVSVALGQTARIPCGGNNIENKNVHWYQQKPGQAPVLVIYRDSNRPSGIPERFSGSNSGNTATLSINRAQAGDEADYYCQVWDSNTVIFGGGTKVTVLGQPKAAPSVTLFPPSSEELQANKATLVCLISDFYPGAVTVAWKADSSPVKAGVETTTPSKQSNNKYAASSYLSLTPEQWKSHKSYSCQVTHEGSTVEKTVAPTECS |
| 120 nM | 51.1 nM | – | – | CTLA4_anti OX40L fusion protein 85F10 (Fc fusion) heavy: [sequence of about 120 residues not given]EPKSSDKTHTCPPCPAPPVAGPSVFLFPPKPKDTLMISRTPEVTCVVVDVSHEDPEVKFNWYVDGVEVHNAKTKPREEQYNSTYRVVSVLTVLHQDWLNGKEYKCAVSNKALPSSIEKTISKAKGQPREPQVYTLPPSREEMTKNQVSLTCLVKGFYPSDIAVEWESNGQPENNYKTTPPVLDSDGSFFLYSKLTVDKSRWQQGNVFSCSVMHEALHNHYTQKSLSLSPGAGGGGSGGGGSGGGGSEVQLLESGAGLLKPSETLSLTCAVYGGSFSDYYWSWIRQPPGKGLEWIGEINHSGSTNYNPSLKSRVTISVDTSKNQFSLKLSSVTAADTAVYYCARKRGANFFDDWGQGTLVTVSSASTKGPSVFPLAPSSKSTSGGTAALGCLVKDYFPEPVTVSWNSGALTSGVHTFPAVLQSSGLYSLSSVVTVPSSSLGTQTYICNVNHKPSNTKVDKRVEPKSC light: SYELTQPLSVSVALGQTARITCGGNNIENKNVHWYQQKPGQAPVLVIKRDSNRPSGIPERLSGSNSGNTATLTISRAQAGDEADYYCQVWDSSTVVFGGGTKLTVLGQPKAAPSVTLFPPSSEELQANKATLVCLISDFYPGAVTVAWKADSSPVKAGVETTTPSKQSNNKYAASSYLSLTPEQWKSHKSYSCQVTHEGSTVEKTVAPTECS |
| > 161 nM | 63.8 nM | – | – | CTLA4_anti OX40L fusion protein 88B06 (Fc fusion) heavy: [sequence of about 120 residues not given]EPKSSDKTHTCPPCPAPPVAGPSVFLFPPKPKDTLMISRTPEVTCVVVDVSHEDPEVKFNWYVDGVEVHNAKTKPREEQYNSTYRVVSVLTVLHQDWLNGKEYKCAVSNKALPSSIEKTISKAKGQPREPQVYTLPPSREEMTKNQVSLTCLVKGFYPSDIAVEWESNGQPENNYKTTPPVLDSDGSFFLYSKLTVDKSRWQQGNVFSCSVMHEALHNHYTQKSLSLSPGAGGGGSGGGGSGGGGSEVQLLESGGGLVQPGGSLRLSCAASGFTFSNYAMSWVRQAPGKGLEWVSVISGSGDSTYYAESVKGRFTISRDNSKNTLYLQMTSLRAEDTAEYYCAKDRTPVYGLDVWGQGTTVTVSSASTKGPSVFPLAPSSKSTSGGTAALGCLVKDYFPEPVTVSWNSGALTSGVHTFPAVLQSSGLYSLSSVVTVPSSSLGTQTYICNVNHKPSNTKVDKRVEPKSC light: SYELTQPLSVSVALGQTARISCGGNNIGRKNVHWYQQKPGQAPVLVIYGDSNRPSGIPERFSGSNSGNTATLTIGRAQAGDEADYYCQVWDSSTVFGGGTKLTVLGQPKAAPSVTLFPPSSEELQANKATLVCLISDFYPGAVTVAWKADSSPVKAGVETTTPSKQSNNKYAASSYLSLTPEQWKSHKSYSCQVTHEGSTVEKTVAPTECS |
